The source of these data is ChEMBL document CHEMBL4888484, “Replenishing the malaria drug discovery pipeline: Screening and hit evaluation of the MMV Hit Generation Library 1 (HGL1) against asexual blood stage Plasmodium falciparum ,using a nano luciferase reporter read-out” (2022).

As usually defined, the % Inhibition is the relative decrease from the control value, in per cent.

SMILES strings stand for the structures. About 540 (0.36%) of roughly 150,000 compounds showed an effect of 50% or more. The list shows a part of the results.

For this experiment, the system named is Plasmodium falciparum. In words: Primary screen in NF54 nanoGlo assay, in single point, at 2uM, 72h; a lower Z score goes with more inhibition. The settings on record: timepoint 72 hour. Type of experiment: functional, Erythrocyte.
In the case of `CC(C)Oc1ccc(-c2nc(C(=O)OCCc3cnn(C)c3)cs2)cc1`, the “% Inhibition” value is -4% and the Z score is 0.53.
The corresponding values for `CC(=O)N1CCC(S(=O)(=O)NCCOc2ccc(C)cc2)CC1` are 0% and -0.01.
The corresponding values for `CC(=O)N1CCN(C(=O)[C@H]2C[C@@H]2c2ccncc2)C(C)(C)C1` are 4% and -0.42.
The corresponding values for `Cc1nc2ncnn2c(O)c1NC(=O)c1c(-c2ccccc2Cl)noc1C` are 30% and -3.41.
As for `CN(CCN1CCCCC1=O)Cc1ccc(CN2CCCC2)s1`, the “% Inhibition” value is on record as -12% and the Z score worked out at 2.24.
For `Cc1noc2ncnc(N3CCC[C@H]3C3CCC3)c12`, the “% Inhibition” value is given as -5% and the Z score is recorded as 0.46.
The corresponding values for `COc1ccccc1OCCN1C[C@@H](C(=O)Nc2nccs2)CC1=O` are -4% and 0.44.
For the compound `C[C@@H](c1ccccc1)N(Cc1nc(C(=O)NCc2ccccc2)co1)Cc1ccc(Cl)cc1Cl`, the “% Inhibition” value is on record as -5% and the Z score worked out at 0.95.
The like results for `c1ccc(-c2nc(N3CCn4cnnc4C3)no2)cc1` were, in that order, -13% and 2.08.
The corresponding values for `Cc1cc(C)n(C2CN(C(=O)c3cnnn3-c3ccccc3)C2)n1` are 0% and 0.
In the case of `Cc1nc(-c2cccc(NC(=O)N(C)CC3(CO)CCOCC3)c2)cs1`, the “% Inhibition” value is -15% and the Z score is on record as 1.43.
The corresponding values for `N#CC1CN(C(=O)[C@H]2CCCO2)CCN1C(=O)[C@H]1CCCO1` (some centres undefined) are 8% and -1.25.
The corresponding values for `CC(C)(C)c1nnc(NCCCN2CCOCC2)[nH]c1=O` are 12% and -1.9.
The like results for `O=C1C[C@@H](C(=O)Nc2ccc(Oc3ccccc3)cc2)n2ncnc2N1` were, in that order, 4% and -0.62.
Consider `CCOC(=O)C1CCN(C(=O)[C@H](CC)N(c2nc(-c3ccc(OC)cc3)cs2)c2ccccc2Cl)CC1`, for which the “% Inhibition” value is recorded as -6% and the Z score came out at 0.68.
As for `O=C1N(c2ccccc2)Cc2nn(C3CCCC3)c(=O)n21`, the “% Inhibition” value was -16% and the Z score stood at 2.05.
Consider `Cn1cc(C(=O)NC2CCN(C[C@H]3CCCO3)CC2)c(=O)c2ccccc21`, for which the “% Inhibition” value is given as -2% and the Z score came to 0.35.
The corresponding values for `CC(C)n1cnc2cc(CNC(=O)c3ccco3)ccc21` are -22% and 2.14.
The corresponding values for `COc1ccccc1N(C)CCCS(=O)(=O)N(C)C` are -3% and 0.35.
The like results for `Cc1ccc(NC(=O)NCCn2c(-c3ccccc3)nc3cccnc32)c(C)c1` were, in that order, 7% and -1.24.
Regarding `CC1(C)[C@@H]2CCC13CS(=O)(=O)N(CC(=O)Nc1ccc(N4CCOCC4)cc1)[C@H]3C2`, the “% Inhibition” value is listed as -5% and the Z score was found to be 0.66.
The corresponding values for `CCC1C(=O)NCCN1C(=O)C1CC12CCc1ccccc12` (centres undefined) are -1% and 0.18.
The corresponding values for `C#CCN(C(=O)c1ccc(N2CCCC2)nc1)C1CCCCC1` are -18% and 2.33.
The corresponding values for `Nc1nnnn1CC(=O)N1CC[C@H]1c1ccc(F)cc1` are -1% and 0.13.
Turning to `CCCc1cc(C(=O)N2CCC([C@H](Cc3ccc(F)cc3F)N(C)C(=O)c3cccnc3)CC2)no1`, the “% Inhibition” value is -13% and the Z score came out at 1.68.
The like results for `C#CCN(Cc1ccco1)Cc1cn(C)nc1-c1ccccc1F` were, in that order, -5% and 0.76.
The like results for `CCc1noc(NC(C)=O)c1-c1ccc(C)c(S(=O)(=O)NC2CCCCCC2)c1` were, in that order, -7% and 0.98.
In the case of `O=S(=O)(Cc1ccccc1)NCCn1nc(-c2cnccn2)cc1C1CC1`, the “% Inhibition” value was 15% and the Z score is listed as -1.86.
The like results for `CCOC(=O)N1CCC(NC(=O)c2c[nH]c3cc(C)nn3c2=O)CC1` were, in that order, -3% and 0.52.
The like results for `CN(Cc1cc(F)ccc1Br)C1CCN(c2ccccn2)CC1` were, in that order, -3% and 0.31.
The corresponding values for `COc1cc(C(=O)NC[C@H]2CCCCN2C2CC2)ncn1` are -2% and 0.38.
For the compound `CCOc1ccccc1OS(=O)(=O)c1cccc(C(=O)NC[C@H](c2ccc(N(C)C)cc2)c2c[nH]c3ccccc23)c1`, the “% Inhibition” value is on record as -13% and the Z score is listed as 2.05.
The corresponding values for `CCC=C(C)C(=O)NCc1ccc(C#N)cc1` are -6% and 0.57.
As for `COCCNC(=O)c1ccc(Br)cc1O`, the “% Inhibition” value is -5% and the Z score was 1.08.
Take `Cc1ncsc1CNC(=O)[C@H]1CCc2ccccc2C1`: the “% Inhibition” value is given as -7% and the Z score turned out to be 0.91.
With `O=C(CC(=O)Nc1cc(Cl)cc2c1OCC2)NCC(F)(F)F`, the “% Inhibition” value came to 30% and the Z score is listed as -3.4.
The like results for `CCn1c([C@H]2CC(=O)N(C)C2)n[nH]c1=O` were, in that order, -17% and 2.98.
The like results for `O=C1C[C@H](c2ccc(F)c(F)c2F)c2cnn(Cc3ccco3)c2N1` were, in that order, -2% and 0.32.
The corresponding values for `O=C(O)C[C@@H]1CCN(Cc2ccccc2)C[C@@H]1Cc1nc2cnccc2[nH]1` are -6% and 0.96.
Regarding `Cc1onc(C(=O)N2CCC3(CC2)CC[C@]3(C)O)c1Cn1cccn1`, the “% Inhibition” value worked out at 42% and the Z score is given as -5.22.
As to `CN1CCN(C(=O)CCOCC(F)(F)F)c2ccccc2C1`, the “% Inhibition” value is on record as -4% and the Z score was found to be 0.55.
The corresponding values for `CCC(C)CC(C)NC(=O)c1c[nH]c(C)cc1=O` (centres undefined) are 34% and -3.81.
